Source: PubChem BioAssay (NCATS)
The inconclusive results got no clear call from the source; some entries with a clear call stand among them for comparison. For some assays here: Potencies of inconclusive entries are doubtful fits and often do not repeat. Active and inactive are the calls of the source. Unless noted, the call rests on the fitted dose curve; in most records, active means well fitted curve in the direction sought with a large enough effect; inconclusive means small, poorly fitted or top-dose-only effect, or another doubt; inactive means no such curve, though single readings can be large; an effect the other way counts as inactive or inconclusive.

What was measured:
[1] = P-glycoprotein substrates identified in KB-8-5-11 adenocarcinoma cell line, qHTS therapeutic library screen (AID 1346987); further: nearly all actives have a fitted effect of over 65% in size; on activity change, negative = cytotoxicity: on the % scale 0 is the no-effect control and ±100 the full control effect
Outline: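 KB-8-5-11: colchicine-selected sub-line of KB-3-1 over-expressing P-gp; assay medium lacked colchicine. 72 h drug exposure at 37 degree C, CellTiter-Glo.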

[2] = biological target: Cytochrome P450 2D6 (Homo sapiens) (UniProt P10635); assay: Cytochrome P450 family 2 subfamily D member 6 (CYP2D6) small molecule antagonists: luciferase biochemical (cell-free) qHTS assay (AID 1645840; active means well fitted curve in the direction sought with a large enough effect in the repeat runs; inconclusive means weak or mixed curves; inactive means no such curve, though single readings can be large; an effect the other way counts as inactive or inconclusive; further: nearly all actives have a fitted effect of over 55% in size)
Outline: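 P450-Glo luminescent screen: recombinant CYP2D6 enzyme–proluciferin substrate mix preincubated with compound 10 min at room temperature, then NADPH regeneration added for 1 h at room temperature. Detection reagent added for 20 min; luciferin light read as relative luminescence units.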

NIH3T3 = assay: Cytotoxic Profiling of Annotated Libraries Using Quantitative High-Throughput Screening (AID 1296008); conditions: Five cell lines viability, CellTiter-Glo ATP luminescence, 48-72 h; max response: stronger effect = lower value; further: nearly all actives have a fitted effect of over 60% in size; on max response: on the % scale 0 is the no-effect control and ±100 the full control effect
Outline: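 Compounds were pin-transferred onto cells and incubated 48 or 72 hr at 37 degree Celsius, 95% humidity. CellTiter-Glo was added, plates sat 10 min at room temperature, then ATP-coupled luminescence was imaged as the viability read-out.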

CAOV3 = assay: Primary qHTS to identify gynecologic anti-cancer compounds using libraries of approved drugs and bioactive compounds (AID 1345084); conditions: Gynecologic cancer cell panel viability, ATPlite luminescence, 48 h; activity change, negative = cytotoxicity: at 57.5 µM (top of the series); further: nearly all actives have a fitted effect of over 55% in size; on activity change, negative = cytotoxicity: on the % scale 0 is the no-effect control and ±100 the full control effect
Outline: (§1)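 In this quantitative HTS, cell killing is estimated from loss of ATP-dependent luciferase light. Cells see five compound concentrations over a 48 h exposure.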

PA-1 = assay: as above; conditions: Gynecologic cancer cell panel viability, ATPlite luminescence, 48 h; series mostly up to 57.5 µM
Outline: as §1

SKOV3 = assay: as above; conditions: Gynecologic cancer cell panel viability, ATPlite luminescence, 48 h; series mostly up to 57.5 µM
Outline: as §1

[3] = test system: Zika virus NS2B-NS3 protease (unlinked complex); assay: Primary screen GU Rhodamine qHTS for Zika virus inhibitors: Unlinked NS2B-NS3 protease assay (AID 1347159); further: nearly all actives have a fitted effect of over 60% in size
Outline: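 Noncovalent NS2B hydrophilic domain/NS3 protease complex (25 nM final) in 10 mM Tris-HCl pH 8.0, 0.01% Tween 20, preincubated 15 min with compounds (up to 114 microM), then 1.5 microM Rhodamine110 substrate. Fluorescence change over 15 min fitted to 4-parameter Hill.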

[4] = Primary fluorescence-based thiol-reactive (MSTI) qHTS assay for identification of artifact compounds. (AID 1845221);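 further: thiol-reactive compounds lower the probe fluorescence signal; nearly all actives have a fitted effect of over 65% in size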
Outline: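 One-hour, room-temperature, dark incubation of compound with 4 uM MSTI in PBS (pH 7.4, 2% DMSO) precedes a fluorescence read at 525 nm excitation, 598 nm emission; Hill-equation fitting yields concentration-response values.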

Tov112D = assay: Primary qHTS to identify gynecologic anti-cancer compounds using libraries of approved drugs and bioactive compounds (AID 1345084); conditions: Gynecologic cancer cell panel viability, ATPlite luminescence, 48 h; series mostly up to 57.5 µM; further: nearly all actives have a fitted effect of over 55% in size; on activity change, negative = cytotoxicity: on the % scale 0 is the no-effect control and ±100 the full control effect
Outline: as §1

[5] = Primary qHTS for inhibitors of nuclear receptor binding SET domain protein 2 (NSD2) in an RCH-ACV wild type WT cells (2C) (AID 1645877); conditions: activity change, negative = cell killing: at 44.9 µM (top of the series) unless noted; further: nearly all actives have a fitted effect of over 70% in size
[6] = Primary redox qHTS assay for identification of artifact compounds. (AID 1845223); conditions: Amplex Red/HRP redox cycling with DTT, fluorescence; redox activity (% of DA3003): at 53.8 µM (top of the series);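 on redox activity (% of DA3003): 0% = DMSO and 100% = reference compound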
Outline: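 Amplex Red (25 uM) and HRP (250 mU/mL) in HBSS, with compounds for 15 min, then 250 uM DTT for 30 min, room temperature, dark. Fluorescence 525/598 nm read; normalized to DMSO and 10 uM DA3003; Hill fit.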

CASKI = assay: Primary qHTS to identify gynecologic anti-cancer compounds using libraries of approved drugs and bioactive compounds (AID 1345084); conditions: Gynecologic cancer cell panel viability, ATPlite luminescence, 48 h; series mostly up to 57.5 µM; further: nearly all actives have a fitted effect of over 55% in size
Outline: as §1

OV90 = assay: as above; conditions: Gynecologic cancer cell panel viability, ATPlite luminescence, 48 h; series mostly up to 57.5 µM
Outline: as §1

Tov-21-G = assay: as above; conditions: Gynecologic cancer cell panel viability, ATPlite luminescence, 48 h; activity change, negative = cytotoxicity: at 57.5 µM (top of the series) unless noted
Outline: as §1

[7] = Primary qHTS for inhibitors of nuclear receptor binding SET domain protein 2 (NSD2) in an isogenic RCH-ACV NSD2 p.E1099K mutant (9B) (AID 1645876); further: nearly all actives have a fitted effect of over 70% in size
C33A = assay: Primary qHTS to identify gynecologic anti-cancer compounds using libraries of approved drugs and bioactive compounds (AID 1345084); conditions: Gynecologic cancer cell panel viability, ATPlite luminescence, 48 h; series mostly up to 57.5 µM; further: nearly all actives have a fitted effect of over 55% in size
Outline: as §1

Es-2 = assay: as above; conditions: Gynecologic cancer cell panel viability, ATPlite luminescence, 48 h; series mostly up to 57.5 µM
Outline: as §1

Hek293T = assay: as above; conditions: Gynecologic cancer cell panel viability, ATPlite luminescence, 48 h, control line for the selectivity index; activity change, negative = cytotoxicity: at 57.5 µM (top of the series) unless noted
Outline: as §1

HeLa = assay: as above; conditions: Gynecologic cancer cell panel viability, ATPlite luminescence, 48 h; activity change, negative = cytotoxicity: at 57.5 µM (top of the series)
Outline: as §1
Potency means the concentration at half of the fitted maximal effect; tags describe the fitted curve by direction and shape.

UniProt P10635, sequence (P10635 whole entry, looked up): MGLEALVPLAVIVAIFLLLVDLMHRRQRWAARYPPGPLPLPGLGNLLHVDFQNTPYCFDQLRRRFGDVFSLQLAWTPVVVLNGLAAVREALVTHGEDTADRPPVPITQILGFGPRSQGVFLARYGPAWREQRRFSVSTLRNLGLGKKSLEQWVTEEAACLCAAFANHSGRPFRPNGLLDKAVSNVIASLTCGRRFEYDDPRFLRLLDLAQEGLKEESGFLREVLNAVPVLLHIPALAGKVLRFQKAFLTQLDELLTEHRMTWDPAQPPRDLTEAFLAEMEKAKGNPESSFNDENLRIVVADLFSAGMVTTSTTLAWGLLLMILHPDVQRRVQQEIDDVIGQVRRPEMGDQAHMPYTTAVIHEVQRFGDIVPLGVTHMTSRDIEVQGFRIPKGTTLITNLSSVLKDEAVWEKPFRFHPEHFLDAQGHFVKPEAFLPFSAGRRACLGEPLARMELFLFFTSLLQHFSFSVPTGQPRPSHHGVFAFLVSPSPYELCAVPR

Fc1ccccc1-c1nc2ccn(Cc3ccc(-c4ccc(C(F)(F)F)cc4C(F)(F)F)nn3)cc-2n1
inconclusive: Potency [2] 7.56 µM [inhibitor, full curve] | Potency (PA-1) 44.7 µM [rising, partial curve, poor fit] | Potency (SKOV3) 3.16 µM [rising, full curve, poor fit]
inactive: Potency [1] | max response (NIH3T3) -4.04% | Potency (CAOV3)

CC1(CCC(=O)O)C(=O)C=CC23CC4CC(OC4(C)C2O)C13 (stereo not drawn)
inactive: Potency [3] | outcome (NIH3T3) | Potency (SKOV3) | Potency (Tov112D)
inconclusive: Potency [4] 2.33 µM [inhibitor, full curve, poor fit] | Potency (CAOV3) 12.6 µM [rising, single point]

Cc1cc(CS(=O)(=O)c2ccccc2)cc(OCc2ccc(CN3CCCC3CO)cc2)c1 (stereo not drawn)
inconclusive: Potency [1] 14.6 µM [inhibitor, partial curve] | Potency [5] 12.9 µM [inhibitor, partial curve] | Potency (NIH3T3) 23.1 µM [inhibitor, single point] | Potency (OV90) 8.91 µM [cytotoxic, partial curve] | Potency (SKOV3) 0.708 µM [rising, partial curve, poor fit]
inactive: Potency [6] | Potency (CAOV3) | Potency (CASKI) | Potency (Tov-21-G) | Potency (Tov112D)

COCCOc1cnc2ccn([C@H](C)c3nnc4c(F)cc(-c5cnn(C)c5)cn34)c(=O)c2c1
inactive: Potency [5] | Potency (CAOV3)
inconclusive: Potency [6] 26.7 µM [activator, partial curve, poor fit] | Potency (NIH3T3) 7.31 µM [inhibitor, partial curve, poor fit] | Potency (PA-1) 3.16 µM [rising, single point]

CC1OC(OC2C(C)OC(OC3C(OC(=O)C45CCC(C)(C)CC4C4=CCC6C7(C)CCC(OC8OC(C(=O)O)C(O)C(O)C8OC8OC(CO)C(O)C(OC9OC(C)C(O)C(O)C9O)C8O)C(C)(CO)C7CCC6(C)C4(C)CC5)OC(CO)C(O)C3O)C(O)C2O)C(O)C(O)C1O (stereo not drawn)
inconclusive: Potency [6] 1.42 µM [activator, partial curve, poor fit]
inactive: activity change, negative = viability loss [7] 2.43% [at 9.23 µM] | max response (NIH3T3) -18.1% | activity change, negative = cytotoxicity (C33A) 1.01% [at 6.55 µM]

CCOC(=O)c1csc(Nc2ccc(Cl)cc2)n1
inactive: Potency [3] | Potency [4] | Potency (CAOV3) | Potency (CASKI)
inconclusive: Potency [1] 29.1 µM [inhibitor, single point] | Potency [5] 23 µM [inhibitor, single point] | Potency (NIH3T3) 29.1 µM [inhibitor, single point] | Potency (Es-2) 39.8 µM [cytotoxic, single point] | Potency (Hek293T) 39.8 µM [cytotoxic, single point]

COc1ccc(-c2cnc(-c3cccc4c3-c3ccccc3C4=O)o2)cc1
inconclusive: Potency (NIH3T3) 0.317 µM [inhibitor, full curve] | Potency (C33A) 501 nM [cytotoxic, full curve] | Potency (CASKI) 355 nM [cytotoxic, full curve, poor fit] | Potency (Hek293T) 0.112 µM [cytotoxic, full curve] | Potency (OV90) 0.794 µM [cytotoxic, full curve, poor fit]
active: Potency (Es-2) 0.158 µM | Potency (HeLa) 199 nM | Potency (SKOV3) 0.158 µM | Potency (Tov-21-G) 0.141 µM | Potency (Tov112D) 178 nM

CN(C)CCN(Cc1ccccc1)C(=O)c1cc(-c2ccc(F)cc2)n2nc(C(C)(C)C)cc2n1
active: Potency [1] 20.6 µM | Potency [7] 3.25 µM | Potency [5] 2.9 µM
inactive: Potency [3] | Potency [6] | Potency (Tov-21-G)
inconclusive: Potency [4] 7.52 µM [inhibitor, single point] | Potency (NIH3T3) 29.1 µM [inhibitor, single point] | Potency (CAOV3) 39.8 µM [cytotoxic, single point] | Potency (OV90) 15.8 µM [cytotoxic, partial curve] | Potency (PA-1) 22.4 µM [cytotoxic, single point] | Potency (SKOV3) 39.8 µM [cytotoxic, single point]

O=C(N/N=C/c1ccc(O)c(O)c1)c1cc2ccccc2cc1O
inactive: Potency (SKOV3)
inconclusive: Potency [3] 6.31 µM [inhibitor, partial curve] | Potency (NIH3T3) 6.85 µM [inhibitor, single point] | Potency (CAOV3) 7.08 µM [cytotoxic, single point] | Potency (Tov-21-G) 10 µM [cytotoxic, single point]
active: Potency [7] 6.82 µM
